{"source": "the supplement of paper PMC10037445", "key": {"RAW-Dual [1]": {"tested_on": "RAW-Dual", "assay": "IRF Lucia reporter activity, fold change vs agonist alone; cytotoxicity flag (confluency mask): cytotoxic (confluency <70% of control); higher = enhanced IRF activity", "outline": "(§1)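 Cytotoxic wells were those whose IncuCyte confluency was below 70% of agonist controls in both mask sets. The cells were RAW-Dual macrophages at 50,000 cells/well in DMEM on 384-well plates, dosed with 50 nL of library stock by pin tool, stimulated with a PRR agonist 1 h later, and kept at 37 °C, 5% CO2 for 20 hours. IRF and NF-κB reporter activity, as fold change over agonist-alone wells, came from supernatant read by QuantiLuc luminescence and QuantiBlue absorbance, respectively.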"}, "RAW-Dual [2]": {"tested_on": "RAW-Dual", "assay": "IRF Lucia reporter activity, fold change vs agonist alone; cytotoxicity flag (confluency mask): not cytotoxic; higher = enhanced IRF activity", "outline": "as §1"}, "RAW-Dual [3]": {"tested_on": "RAW-Dual", "assay": "IRF Lucia reporter activity, fold change vs agonist alone; higher = enhanced IRF activity", "details": "cytotoxicity flag (confluency mask): not cytotoxic, agonist: MPLA (TLR4) […]", "outline": "as §1"}, "[4]": {"details": "agonist: 3'3'-cGAMP (STING) 10 ug/mL"}, "[5]": {"details": "library stock concentration (final ~1000-fold dilution): 10 mM"}}, "note": "In all, about 2,900 compounds were measured (“IRF Lucia reporter activity, fold change vs agonist alone”: median about 0.9, highest 2% from about 2.8 on). This is one part of the list.", "data": [{"smiles": "CN1CCN(CCCNc2ncc(Cl)c(-c3cc4c(C(=O)NC5CC5)cccc4s3)n2)CC1", "note": "(library stock concentration (final ~1000-fold dilution): 10 mM)", "values": [{"measurement": "IRF Lucia reporter activity", "setting": "RAW-Dual [1]; [4]", "result": 0.204}, {"measurement": "IRF Lucia reporter activity", "setting": "RAW-Dual [1]; agonist: LPS (TLR4) 0.1 ug/mL", "result": 0.0765}]}, {"smiles": "CC[N+](CC)(CC)CC", "note": "(library stock concentration (final ~1000-fold dilution): 10 mM)", "values": [{"measurement": "IRF Lucia reporter activity", "setting": "RAW-Dual [2]; [4]", "result": 1.01}, {"measurement": "IRF Lucia reporter activity", "setting": "RAW-Dual [2]; agonist: LPS (TLR4) 0.1 ug/mL", "result": 0.826}]}, {"smiles": "CC[N+](CC)(CC)CC", "values": [{"measurement": "IRF Lucia reporter activity", "setting": "RAW-Dual [3]; [5]", "result": 0.993}]}, {"smiles": "CCN(CC)Cc1cc(Nc2ccnc3cc(Cl)ccc23)ccc1O.Cl.Cl.O.O", "values": [{"measurement": "IRF Lucia reporter activity", "setting": "RAW-Dual [3]; [5]", "result": 1.21}]}, {"smiles": "CCN(CC)Cc1cc(Nc2ccnc3cc(Cl)ccc23)ccc1O.Cl.Cl.O.O", "note": "(library stock concentration (final ~1000-fold dilution): 10 mM)", "values": [{"measurement": "IRF Lucia reporter activity", "setting": "RAW-Dual [2]; [4]", "result": 0.802}, {"measurement": "IRF Lucia reporter activity", "setting": "RAW-Dual [2]; agonist: LPS (TLR4) 0.1 ug/mL", "result": 1.25}]}, {"smiles": "Cl.OC(CCCN1CCCCC1)(c1ccccc1)c1ccccc1", "note": "(library stock concentration (final ~1000-fold dilution): 10 mM)", "values": [{"measurement": "IRF Lucia reporter activity", "setting": "RAW-Dual [2]; [4]", "result": 1.15}, {"measurement": "IRF Lucia reporter activity", "setting": "RAW-Dual [2]; agonist: LPS (TLR4) 0.1 ug/mL", "result": 1.26}]}, {"smiles": "Cl.OC(CCCN1CCCCC1)(c1ccccc1)c1ccccc1", "values": [{"measurement": "IRF Lucia reporter activity", "setting": "RAW-Dual [3]; [5]", "result": 1.03}]}, {"smiles": "NC(CSCCCO)C(=O)O", "note": "(stereo unspecified) (library stock concentration (final ~1000-fold dilution): 10 mM water)", "values": [{"measurement": "IRF Lucia reporter activity", "setting": "RAW-Dual [2]; [4]", "result": 0.986}, {"measurement": "IRF Lucia reporter activity", "setting": "RAW-Dual [2]; agonist: LPS (TLR4) 0.1 ug/mL", "result": 0.871}]}, {"smiles": "NC(CSCCCO)C(=O)O", "note": "(stereo unspecified)", "values": [{"measurement": "IRF Lucia reporter activity", "setting": "RAW-Dual [3]; library stock concentration (final ~1000-fold dilution): 10 mM water", "result": 1.32}]}, {"smiles": "CCC(c1ccc(O)cc1)C(CC)c1ccc(O)cc1", "note": "(stereo unspecified) (library stock concentration (final ~1000-fold dilution): 10 mM)", "values": [{"measurement": "IRF Lucia reporter activity", "setting": "RAW-Dual [2]; [4]", "result": 1.07}, {"measurement": "IRF Lucia reporter activity", "setting": "RAW-Dual [2]; agonist: LPS (TLR4) 0.1 ug/mL", "result": 1.01}]}, {"smiles": "CCC(c1ccc(O)cc1)C(CC)c1ccc(O)cc1", "note": "(stereo unspecified)", "values": [{"measurement": "IRF Lucia reporter activity", "setting": "RAW-Dual [3]; [5]", "result": 1.14}]}, {"smiles": "Cc1cnc(Nc2ccc(N3CCN(C)CC3)cc2)nc1Nc1cccc(S(=O)(=O)NC(C)(C)C)c1", "values": [{"measurement": "IRF Lucia reporter activity", "setting": "RAW-Dual [3]; [5]", "result": 0.993}]}, {"smiles": "Cc1cnc(Nc2ccc(N3CCN(C)CC3)cc2)nc1Nc1cccc(S(=O)(=O)NC(C)(C)C)c1", "note": "(library stock concentration (final ~1000-fold dilution): 10 mM)", "values": [{"measurement": "IRF Lucia reporter activity", "setting": "RAW-Dual [2]; [4]", "result": 0.996}, {"measurement": "IRF Lucia reporter activity", "setting": "RAW-Dual [2]; agonist: LPS (TLR4) 0.1 ug/mL", "result": 0.0609}]}, {"smiles": "CC(C)N(CCC(=O)c1ccc2ccccc2c1)Cc1ccccc1.Cl", "note": "(library stock concentration (final ~1000-fold dilution): 10 mM)", "values": [{"measurement": "IRF Lucia reporter activity", "setting": "RAW-Dual [1]; [4]", "result": 0.102}, {"measurement": "IRF Lucia reporter activity", "setting": "RAW-Dual [1]; agonist: LPS (TLR4) 0.1 ug/mL", "result": 0.211}]}, {"smiles": "CC(C)CCN1c2nc(Nc3cc(F)c(O)c(F)c3)ncc2N(C)C(=O)C1C", "note": "(stereo unspecified)", "values": [{"measurement": "IRF Lucia reporter activity", "setting": "RAW-Dual [3]; [5]", "result": 0.111}]}, {"smiles": "CC(C)CCN1c2nc(Nc3cc(F)c(O)c(F)c3)ncc2N(C)C(=O)C1C", "note": "(stereo unspecified) (library stock concentration (final ~1000-fold dilution): 10 mM)", "values": [{"measurement": "IRF Lucia reporter activity", "setting": "RAW-Dual [2]; [4]", "result": 0.0771}, {"measurement": "IRF Lucia reporter activity", "setting": "RAW-Dual [2]; agonist: LPS (TLR4) 0.1 ug/mL", "result": 0.0847}]}, {"smiles": "O=C1NC(=O)/C(=C/c2ccc(-c3ccc(F)cc3O)o2)S1", "note": "(library stock concentration (final ~1000-fold dilution): 10 mM)", "values": [{"measurement": "IRF Lucia reporter activity", "setting": "RAW-Dual [2]; [4]", "result": 0.758}, {"measurement": "IRF Lucia reporter activity", "setting": "RAW-Dual [2]; agonist: LPS (TLR4) 0.1 ug/mL", "result": 1.6}]}, {"smiles": "O=C1NC(=O)/C(=C/c2ccc(-c3ccc(F)cc3O)o2)S1", "values": [{"measurement": "IRF Lucia reporter activity", "setting": "RAW-Dual [3]; [5]", "result": 1.51}]}, {"smiles": "CCCCCCCCCCCCCCCCCC(=O)O", "note": "(library stock concentration (final ~1000-fold dilution): 10 mM)", "values": [{"measurement": "IRF Lucia reporter activity", "setting": "RAW-Dual [2]; [4]", "result": 0.975}, {"measurement": "IRF Lucia reporter activity", "setting": "RAW-Dual [2]; agonist: LPS (TLR4) 0.1 ug/mL", "result": 1.19}]}, {"smiles": "CCCCCCCCCCCCCCCCCC(=O)O", "values": [{"measurement": "IRF Lucia reporter activity", "setting": "RAW-Dual [3]; [5]", "result": 0.969}]}, {"smiles": "O=C(C=Cn1cnc(-c2cc(C(F)(F)F)cc(C(F)(F)F)c2)n1)N1CC(F)(F)C1", "values": [{"measurement": "IRF Lucia reporter activity", "setting": "RAW-Dual [3]; [5]", "result": 0.182}]}, {"smiles": "O=C(C=Cn1cnc(-c2cc(C(F)(F)F)cc(C(F)(F)F)c2)n1)N1CC(F)(F)C1", "note": "(library stock concentration (final ~1000-fold dilution): 10 mM)", "values": [{"measurement": "IRF Lucia reporter activity", "setting": "RAW-Dual [2]; [4]", "result": 0.1}, {"measurement": "IRF Lucia reporter activity", "setting": "RAW-Dual [2]; agonist: LPS (TLR4) 0.1 ug/mL", "result": 0.213}]}, {"smiles": "CCn1c(=O)c(-c2ccc(-c3cncs3)cc2Cl)cc2cnc(Nc3ccc(N4CCN(C)CC4)cc3)nc21", "note": "(library stock concentration (final ~1000-fold dilution): 10 mM)", "values": [{"measurement": "IRF Lucia reporter activity", "setting": "RAW-Dual [2]; [4]", "result": 0.511}, {"measurement": "IRF Lucia reporter activity", "setting": "RAW-Dual [2]; agonist: LPS (TLR4) 0.1 ug/mL", "result": 0.274}]}, {"smiles": "CCn1c(=O)c(-c2ccc(-c3cncs3)cc2Cl)cc2cnc(Nc3ccc(N4CCN(C)CC4)cc3)nc21", "values": [{"measurement": "IRF Lucia reporter activity", "setting": "RAW-Dual [3]; [5]", "result": 0.671}]}, {"smiles": "CCN(CC)C(=O)N1CCN(C)CC1.O=C(O)CC(O)(CC(=O)O)C(=O)O", "values": [{"measurement": "IRF Lucia reporter activity", "setting": "RAW-Dual [3]; [5]", "result": 1.09}]}, {"smiles": "CCN(CC)C(=O)N1CCN(C)CC1.O=C(O)CC(O)(CC(=O)O)C(=O)O", "note": "(library stock concentration (final ~1000-fold dilution): 10 mM)", "values": [{"measurement": "IRF Lucia reporter activity", "setting": "RAW-Dual [2]; [4]", "result": 1.03}, {"measurement": "IRF Lucia reporter activity", "setting": "RAW-Dual [2]; agonist: LPS (TLR4) 0.1 ug/mL", "result": 1.26}]}, {"smiles": "Nc1ccn(C2CCC(CO)O2)c(=O)n1", "note": "(stereo unspecified) (library stock concentration (final ~1000-fold dilution): 10 mM)", "values": [{"measurement": "IRF Lucia reporter activity", "setting": "RAW-Dual [2]; [4]", "result": 1.03}, {"measurement": "IRF Lucia reporter activity", "setting": "RAW-Dual [2]; agonist: LPS (TLR4) 0.1 ug/mL", "result": 1.01}]}, {"smiles": "Nc1ccn(C2CCC(CO)O2)c(=O)n1", "note": "(stereo unspecified)", "values": [{"measurement": "IRF Lucia reporter activity", "setting": "RAW-Dual [3]; [5]", "result": 0.878}]}, {"smiles": "CCCc1nc(C(C)(C)O)c(C(=O)OCc2oc(=O)oc2C)n1Cc1ccc(-c2ccccc2-c2nn[nH]n2)cc1", "note": "(library stock concentration (final ~1000-fold dilution): 10 mM)", "values": [{"measurement": "IRF Lucia reporter activity", "setting": "RAW-Dual [2]; [4]", "result": 1.06}, {"measurement": "IRF Lucia reporter activity", "setting": "RAW-Dual [2]; agonist: LPS (TLR4) 0.1 ug/mL", "result": 0.909}]}, {"smiles": "CCCc1nc(C(C)(C)O)c(C(=O)OCc2oc(=O)oc2C)n1Cc1ccc(-c2ccccc2-c2nn[nH]n2)cc1", "values": [{"measurement": "IRF Lucia reporter activity", "setting": "RAW-Dual [3]; [5]", "result": 1.01}]}]}
